# This is one part of the list.
# How the values were obtained:
# Assay in all cases: glycan array binding signal (z-score within array); higher = stronger binding
# Conditions in all cases: glycan notation: IUPAC condensed, linker removed; mutation: H59Q
# Gal(a1-3)Gal(b1-4)GlcNAc = molecular target: Gal(a1-3)Gal(b1-4)GlcNAc
# How it was run: (§1)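 Columns mapping to the same glycan were averaged after glycan names were converted to IUPAC-condensed notation. The data come from 3228 arrays in the Consortium for Functional Glycomics database, limited to those with an available protein sequence. Binding is reported as a within-array Z-score averaged across arrays of one protein sequence and across linkers.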
# [1] = molecular target: Gal(a1-3)Gal(b1-4)GlcNAc(b1-2)Man
# How it was run: as §1
# [2] = molecular target: Gal(a1-3)Gal(b1-4)GlcNAc(b1-2)Man(a1-3)[Gal(a1-3)Gal(b1-4)GlcNAc(b1-2)Man(a1-6)]Man(b1-4)GlcNAc(b1-4)GlcNAc
# How it was run: as §1
# [3] = molecular target: Gal(a1-3)Gal(b1-4)GlcNAc(b1-3)GalNAc
# How it was run: as §1
# [4] = molecular target: Gal(a1-3)Gal(b1-4)GlcNAc(b1-6)GalNAc
# How it was run: as §1
# [5] = molecular target: Gal(a1-3)Gal(b1-4)[Fuc(a1-3)]GlcNAc
# How it was run: as §1
# [6] = molecular target: Gal(a1-3)Gal(b1-4)[Fuc(a1-3)]GlcNAc(b1-2)Man(a1-3)[Gal(a1-3)Gal(b1-4)[Fuc(a1-3)]GlcNAc(b1-2)Man(a1-6)]Man(b1-4)GlcNAc(b1-4)GlcNAc
# How it was run: as §1
# Gal(a1-3)GalNAc = molecular target: Gal(a1-3)GalNAc
# How it was run: as §1
# [7] = molecular target: Gal(a1-3)[Gal(a1-4)]Gal(b1-4)GlcNAc
# How it was run: as §1
# [8] = molecular target: Gal(a1-4)Gal(b1-3)GlcNAc(b1-2)Man(a1-3)[Gal(a1-4)Gal(b1-3)GlcNAc(b1-2)Man(a1-6)]Man(b1-4)GlcNAc(b1-4)GlcNAc
# How it was run: as §1
# Gal(a1-4)Gal(b1-4)Glc = molecular target: Gal(a1-4)Gal(b1-4)Glc
# How it was run: as §1
# Gal(a1-4)Gal(b1-4)GlcNAc = molecular target: Gal(a1-4)Gal(b1-4)GlcNAc
# How it was run: as §1
# [9] = molecular target: Gal(a1-4)Gal(b1-4)GlcNAc(b1-2)Man(a1-3)[Gal(a1-4)Gal(b1-4)GlcNAc(b1-2)Man(a1-6)]Man(b1-4)GlcNAc(b1-4)GlcNAc
# How it was run: as §1
# [10] = molecular target: Gal(a1-4)Gal(b1-4)GlcNAc(b1-3)Gal(b1-4)Glc
# How it was run: as §1
# Gal(a1-4)GlcNAc = molecular target: Gal(a1-4)GlcNAc
# How it was run: as §1
# Gal(a1-6)Glc = molecular target: Gal(a1-6)Glc
# How it was run: as §1
# Gal(b1-2)Gal = molecular target: Gal(b1-2)Gal
# How it was run: as §1
# Gal(b1-3)Gal = molecular target: Gal(b1-3)Gal
# How it was run: as §1
# Gal(b1-3)Gal(b1-4)GlcNAc = molecular target: Gal(b1-3)Gal(b1-4)GlcNAc
# How it was run: as §1
# Gal(b1-3)GalNAc = molecular target: Gal(b1-3)GalNAc
# How it was run: as §1
# [11] = molecular target: Gal(b1-3)GalNAc(a1-3)[Fuc(a1-2)]Gal(b1-4)Glc
# How it was run: as §1
# [12] = molecular target: Gal(b1-3)GalNAc(a1-3)[Fuc(a1-2)]Gal(b1-4)GlcNAc
# How it was run: as §1
# Gal(b1-3)GalNAc(b1-3)Gal = molecular target: Gal(b1-3)GalNAc(b1-3)Gal
# How it was run: as §1
# [13] = molecular target: Gal(b1-3)GalNAc(b1-3)Gal(a1-4)Gal(b1-4)Glc
# How it was run: as §1
# [14] = molecular target: Gal(b1-3)GalNAc(b1-4)Gal(b1-4)Glc
# How it was run: as §1
# [15] = molecular target: Gal(b1-3)GalNAc(b1-4)[Neu5Ac(a2-3)]Gal(b1-4)Glc
# How it was run: as §1
# Gal(b1-3)GlcNAc = molecular target: Gal(b1-3)GlcNAc
# How it was run: as §1
# [16] = molecular target: Gal(b1-3)GlcNAc(a1-3)Gal(b1-4)GlcNAc
# How it was run: as §1
# [17] = molecular target: Gal(b1-3)GlcNAc(a1-6)Gal(b1-4)GlcNAc
# How it was run: as §1
# Gal(b1-3)GlcNAc(b1-2)Man = molecular target: Gal(b1-3)GlcNAc(b1-2)Man
# How it was run: as §1
# [18] = molecular target: Gal(b1-3)GlcNAc(b1-2)Man(a1-3)[Gal(b1-3)GlcNAc(b1-2)Man(a1-6)]Man(b1-4)GlcNAc(b1-4)GlcNAc
# How it was run: as §1
# [19] = molecular target: Gal(b1-3)GlcNAc(b1-2)Man(a1-3)[Gal(b1-3)GlcNAc(b1-2)Man(a1-6)]Man(b1-4)GlcNAc(b1-4)[Fuc(a1-6)]GlcNAc
# How it was run: as §1
# [20] = molecular target: Gal(b1-3)GlcNAc(b1-2)Man(a1-3)[GlcNAc(b1-4)][Gal(b1-3)GlcNAc(b1-2)Man(a1-6)]Man(b1-4)GlcNAc(b1-4)GlcNAc
# How it was run: as §1
# [21] = molecular target: Gal(b1-3)GlcNAc(b1-2)[Gal(b1-3)GlcNAc(b1-6)]Man(a1-6)[Gal(b1-3)GlcNAc(b1-2)Man(a1-3)]Man(b1-4)GlcNAc(b1-4)GlcNAc
# How it was run: as §1
# [22] = molecular target: Gal(b1-3)GlcNAc(b1-3)Gal(b1-3)GlcNAc
# How it was run: as §1
# [23] = molecular target: Gal(b1-3)GlcNAc(b1-3)Gal(b1-4)Glc
# How it was run: as §1
# [24] = molecular target: Gal(b1-3)GlcNAc(b1-3)Gal(b1-4)GlcNAc
# How it was run: as §1
# [25] = molecular target: Gal(b1-3)GlcNAc(b1-3)Gal(b1-4)GlcNAc(b1-2)Man(a1-3)[Gal(b1-3)GlcNAc(b1-3)Gal(b1-4)GlcNAc(b1-2)Man(a1-6)]Man(b1-4)GlcNAc(b1-4)GlcNAc
# How it was run: as §1
# [26] = molecular target: Gal(b1-3)GlcNAc(b1-3)Gal(b1-4)GlcNAc(b1-2)[Gal(b1-3)GlcNAc(b1-3)Gal(b1-4)GlcNAc(b1-6)]Man(a1-6)[Gal(b1-3)GlcNAc(b1-3)Gal(b1-4)GlcNAc(b1-2)Man(a1-3)]Man(b1-4)GlcNAc(b1-4)[Fuc(a1-6)]GlcNAc
# How it was run: as §1
# [27] = molecular target: Gal(b1-3)GlcNAc(b1-3)Gal(b1-4)GlcNAc(b1-3)Gal(b1-4)GlcNAc(b1-2)[Gal(b1-3)GlcNAc(b1-3)Gal(b1-4)GlcNAc(b1-3)Gal(b1-4)GlcNAc(b1-6)]Man(a1-6)[Gal(b1-3)GlcNAc(b1-3)Gal(b1-4)GlcNAc(b1-3)Gal(b1-4)GlcNAc(b1-2)Man(a1-3)]Man(b1-4)GlcNAc(b1-4)[Fuc(a1-6)]GlcNAc
# How it was run: as §1
# [28] = molecular target: Gal(b1-3)GlcNAc(b1-3)Gal(b1-4)GlcNAc(b1-6)[Gal(b1-3)GlcNAc(b1-3)]Gal(b1-4)Glc
# How it was run: as §1
# [29] = molecular target: Gal(b1-3)GlcNAc(b1-3)Gal(b1-4)[Fuc(a1-3)]GlcNAc
# How it was run: as §1
# [30] = molecular target: Gal(b1-3)GlcNAc(b1-3)Gal(b1-4)[Fuc(a1-3)]GlcNAc(b1-6)[Gal(b1-3)GlcNAc(b1-3)]Gal(b1-4)Glc
# How it was run: as §1
# [31] = molecular target: Gal(b1-3)GlcNAc(b1-3)GalNAc
# How it was run: as §1
# [32] = molecular target: Gal(b1-3)GlcNAc(b1-6)Gal(b1-4)GlcNAc
# How it was run: as §1
binder,measurement,setting,value
"rAAL-H59Q (Agrocybe aegerita), Q6WY08 (protein) MQGVNIYNISAGTSVDLAAPVTTGDIVTFFSSALNLNAGAGNPNNTTLNLFAENGAYLLQIAFRLQENVIIFNSRQPDGPWLVEQRVSDVANQFAGIDGKAMVTVFDHGDKYQVVINEKTVIQYTKQISGLTLSLSYNATEETSIFSTVVEAVTYTGLALEHHHHHH",glycan array binding signal (z-score),Gal(a1-3)Gal(b1-4)GlcNAc,-0.079
same,glycan array binding signal (z-score),[1],-0.106
same,glycan array binding signal (z-score),[2],-0.009
same,glycan array binding signal (z-score),[3],-0.116
same,glycan array binding signal (z-score),[4],-0.109
same,glycan array binding signal (z-score),[5],-0.116
same,glycan array binding signal (z-score),[6],0.052
same,glycan array binding signal (z-score),Gal(a1-3)GalNAc,-0.094
same,glycan array binding signal (z-score),[7],-0.065
same,glycan array binding signal (z-score),[8],-0.065
same,glycan array binding signal (z-score),Gal(a1-4)Gal(b1-4)Glc,-0.112
same,glycan array binding signal (z-score),Gal(a1-4)Gal(b1-4)GlcNAc,0.035
same,glycan array binding signal (z-score),[9],-0.074
same,glycan array binding signal (z-score),[10],-0.057
same,glycan array binding signal (z-score),Gal(a1-4)GlcNAc,-0.091
same,glycan array binding signal (z-score),Gal(a1-6)Glc,-0.062
same,glycan array binding signal (z-score),Gal(b1-2)Gal,-0.097
same,glycan array binding signal (z-score),Gal(b1-3)Gal,-0.05
same,glycan array binding signal (z-score),Gal(b1-3)Gal(b1-4)GlcNAc,-0.079
same,glycan array binding signal (z-score),Gal(b1-3)GalNAc,-0.097
same,glycan array binding signal (z-score),[11],0.012
same,glycan array binding signal (z-score),[12],-0.093
same,glycan array binding signal (z-score),Gal(b1-3)GalNAc(b1-3)Gal,-0.095
same,glycan array binding signal (z-score),[13],-0.021
same,glycan array binding signal (z-score),[14],-0.083
same,glycan array binding signal (z-score),[15],-0.109
same,glycan array binding signal (z-score),Gal(b1-3)GlcNAc,-0.102
same,glycan array binding signal (z-score),[16],-0.119
same,glycan array binding signal (z-score),[17],0.005
same,glycan array binding signal (z-score),Gal(b1-3)GlcNAc(b1-2)Man,-0.103
same,glycan array binding signal (z-score),[18],-0.099
same,glycan array binding signal (z-score),[19],-0.137
same,glycan array binding signal (z-score),[20],-0.093
same,glycan array binding signal (z-score),[21],-0.084
same,glycan array binding signal (z-score),[22],-0.108
same,glycan array binding signal (z-score),[23],-0.083
same,glycan array binding signal (z-score),[24],-0.093
same,glycan array binding signal (z-score),[25],-0.16
same,glycan array binding signal (z-score),[26],0.115
same,glycan array binding signal (z-score),[27],-0.104
same,glycan array binding signal (z-score),[28],-0.026
same,glycan array binding signal (z-score),[29],-0.084
same,glycan array binding signal (z-score),[30],-0.105
same,glycan array binding signal (z-score),[31],-0.109
same,glycan array binding signal (z-score),[32],-0.104

# Source: the supplement of paper PMC8728848
